PubChem BioAssay AID1347073 (National Center for Advancing Translational Sciences (NCATS), 2019)
Out of some 45,000 compounds screened, about 200 (0.44%) were called active. This list was built around the results that the source calls inconclusive (neither active nor inactive); the mix of calls is not that of the screen. Calls follow the shape of the dose curve; as a rule, active = well fitted activation curve with a large enough effect; inconclusive = small, poorly fitted or top-dose-only effect; inactive = no such curve, though single readings can be large or run the other way. Potencies of inconclusive entries are doubtful fits and often do not repeat.

Test: qHTS of TDP-43 Inhibitors: NCGC Sytravon Library Screen; also: nearly all actives have a fitted effect of over 55% in size; as to growth rescue (activation): 0% is about no effect
Settings: yeast TDP-43 toxicity rescue, BacTiter-Glo growth, 24 h; growth rescue (activation): at 46.1 µM (top of the series)
In short: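 TDP-43-expressing yeast, pregrown in raffinose, seeded at OD600 0.02 in galactose medium with compound for 24 hr at 30 deg C. Growth read by BacTiter-Glo luminescence, so rescue of toxicity appears as activation.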
Potency is read from the fitted curve at half-maximal effect; tags tell the direction and shape of the fitted curve.

Structure (SMILES) | Potency | growth rescue (activation)
CCCN1C(=O)S/C(=C/c2ccc(N3CCOCC3)o2)C1=O | inactive | 
CC(O)(c1cccc(F)c1)c1nc(-c2ccc3c(c2)OCO3)cs1 (stereo not drawn) | inconclusive: 2.82 µM [activator, single point] | 
N=c1c2c(-c3ccccc3)c(-c3ccccc3)n(Cc3ccco3)c2ncn1Cc1ccco1 | inconclusive: 35.5 µM [activator, single point] | 
O=C(Nc1cccs1)Nc1ccccc1Cl | inconclusive: 12.6 µM [activator, single point] | 
CC1(C(=O)Nc2cccc3cccnc23)CCN1Cc1csc2ccccc12 (stereo not drawn) |  | inconclusive: 87.9% [activator]
C=CCn1c(SCc2csc(-c3ccc(Cl)cc3)n2)nnc1-c1ccccc1OC | inconclusive: 28.2 µM [activator, single point] | 
CC(C)CC(=O)NC(=S)Nc1cccc2nsnc12 | inconclusive: 5.62 µM [activator, partial curve] | 
O=C(CCSc1ccc(Cl)cc1)N1CCN(c2ccc(O)cc2)CC1 | inconclusive: 17.8 µM [activator, partial curve, poor fit] | 
O=C(CNC(=O)c1ccco1)OCC(=O)c1ccc(Br)cc1 | inactive | 
O=C(NCCc1ccccc1)C1CCCN(c2nc3ccccc3s2)C1 (stereo not drawn) | inactive | 
CCN(CC)C(=O)CSc1nc2ccccc2c(=O)n1CC1CCCCC1 | inconclusive: 35.5 µM [activator, partial curve, poor fit] | 
CC(C)(C)NC(=O)NC(=O)COc1ccc(Br)cc1Br | inconclusive: 12.6 µM [activator, partial curve, poor fit] | 
O=C(NCc1ccccc1)c1ccc2ccccc2n1 | inconclusive: 11.2 µM [activator, partial curve, poor fit] | 
O=c1c2cc(-c3ccccc3)sc2ncn1/N=C/c1ccco1 | inconclusive: 7.08 µM [activator, partial curve, poor fit] | 
CC(Sc1ncnc2ccccc12)C(=O)Nc1ccc2c(c1)OCCO2 (stereo not drawn) | inconclusive: 10 µM [activator, partial curve] | 
COc1cccc(Nc2ncnc3sccc23)c1 | inconclusive: 35.5 µM [activator, single point] | 
CN(C)c1ccc(-c2nc3ccccn3c2Nc2ccc3c(c2)OCCO3)cc1 | inactive | 
Cc1nc2ccc(C(=O)N(C)Cc3ccco3)cn2c1N(C)C(=O)CCc1ccccc1 | inactive | 
COc1ccc(NC(=O)COC(=O)CCC2CCCCC2)cc1 |  | inconclusive: 36.1% [activator]
COCCCNC(=O)c1c(N)n(/N=C/c2ccccn2)c2nc3ccccc3nc12 | inconclusive: 35.5 µM [activator, partial curve, poor fit] | 
CC1(C)C(=O)OC(C(=O)c2ccccc2)C2(CCCCC2)C1=O (stereo not drawn) | inconclusive: 35.5 µM [activator, partial curve, poor fit] | 
O=C(N/N=C/C(Br)=C\c1ccccc1)c1ccco1 | active: 10 µM | 
COc1ccc(C2c3cc(OC)c(OC)cc3CCN2S(C)(=O)=O)cc1OC (stereo not drawn) | inactive | 

Structure (SMILES) | Potency | growth rescue (activation)
O=C(NCc1ccccc1)c1ccc2c(=O)n3c(nc2c1)CCCCC3 | inconclusive: 7.94 µM [activator, partial curve, poor fit] | 
CC(C)CC1(C)N=C(c2ccccc2)C(=S)N1 (stereo not drawn) | inconclusive: 20 µM [activator, single point] | 
CC1(C)CC(N(Cc2ccc(F)cc2)C(=O)c2ccc(F)cc2)CCO1 (stereo not drawn) | inconclusive: 35.5 µM [activator, single point] | 
CCCCCCn1c(/C=C/c2ccccc2)nc2ccccc21 | inconclusive: 12.6 µM [activator, partial curve, poor fit] | 
Cc1ccc(C2CC(c3cccs3)=NN2C(=O)c2ccco2)o1 (stereo not drawn) | inconclusive: 20 µM [activator, partial curve, poor fit] | 
COc1ccc(NC(=O)c2cc([N+](=O)[O-])ccc2N2CCCCC2)cc1OC | inconclusive: 15.8 µM [activator, single point] | 
CCCc1nnc2c(N(C)S(=O)(=O)c3ccc(C)cc3)nc3ccccc3n12 | inactive | 
CCOC(=O)C1CCCN(C(=O)C2(c3ccc(Cl)cc3)CCCC2)CC1 (stereo not drawn) | inconclusive: 20 µM [activator, single point] | 
CCCOc1ccc(F)cc1-c1cc(C(=O)NCc2cccc(Cl)c2)[nH]n1 |  | inconclusive: 131% [activator]
CCCc1[nH]n(-c2nc3ccccc3s2)c(=O)c1C=NCC(C)C | inconclusive: 17.8 µM [activator, single point] | 
Fc1ccc(/C=N/NC(=S)Nc2cccnc2)cc1 | inconclusive: 14.1 µM [activator, single point] | 
COc1ccnc(Oc2ccc(F)cc2)c1C#N | inconclusive: 20 µM [activator, single point] | 
CC(C)n1ncc2c(C(=O)NCCc3ccc(F)cc3)cc(C3CC3)nc21 | inactive | 
Cc1ccccc1C(=O)c1cccn1CC(=O)N1CCCCCC1 | inconclusive: 2.82 µM [activator, partial curve, poor fit] | 
CCOc1cccc(/C=N/NC(=S)Nc2cc(S(=O)(=O)N3CCOCC3)ccc2N2CCOCC2)c1O | inconclusive: 20 µM [activator, partial curve, poor fit] | 
CCOC(=O)C1CCCN(C2=NC(=O)/C(=C/c3ccc(N(C)C)cc3)S2)C1 (stereo not drawn) | inconclusive: 17.8 µM [activator, single point] | 
S=C(c1cn(Cc2ccc(Br)cc2)c2ccccc12)N1CCOCC1 | inconclusive: 31.6 µM [activator, single point] | 
COc1cc(-c2cc3nc(NCc4cccc(Cl)c4)ccn3n2)cc(OC)c1OC | active: 14.1 µM | 
COC(=O)c1c(-c2cccs2)csc1NC(=O)COc1ccc(C(C)C)cc1 | inactive | 
COc1cccc2cc(/C(=N/O)c3ccccc3)oc12 | inconclusive: 12.6 µM [activator, partial curve, poor fit] | 
COc1ccc(NC(=O)CSc2cccc3cccnc23)c(OC)c1 | inconclusive: 12.6 µM [activator, partial curve, poor fit] | 
CCc1cc(-c2nnc(SCC(=O)NC3CC3)n2C)cs1 | inactive | 
Cc1cc2ccccn2c1C(=O)c1ccc(F)cc1 | inconclusive: 5.62 µM [activator, partial curve] | 

Structure (SMILES) | Potency | growth rescue (activation)
COc1cc(-c2coc3c(C(=O)NCc4ccc(OC)c(OC)c4)cccc23)ccc1O |  | inconclusive: 56.8% [activator]
Cc1ccnc(NC(c2cc(C)ccc2O)c2ccc3cccnc3c2O)c1 (stereo not drawn) | inconclusive: 35.5 µM [activator, single point] | 
O=C(Nc1cccc(Cl)c1)c1ccc2c(c1)OCCO2 | inactive | 
CCN1CCN(c2nc(Nc3ccc(NC(C)=O)cc3)nc(Nc3ccc(NC(C)=O)cc3)n2)CC1 | inconclusive: 12.6 µM [activator, partial curve, poor fit] | 
CCCCOc1ccc(Cn2c(=O)oc3ccccc32)cc1 | inconclusive: 8.91 µM [activator, partial curve, poor fit] | 
COc1ccc(CCNC(=O)Cn2c(=O)n(-c3ccc(C)c(F)c3)c(=O)c3sccc32)cc1OC | inconclusive: 12.6 µM [activator, single point] | 
CCCCn1c(-c2nn(C)c(C)c2Cl)n[nH]c1=S | inconclusive: 20 µM [activator, single point] | 
COc1ccc(CN2CCN(c3ncnc4sc5c(c34)CCCC5)CC2)cc1F | inactive | 
COc1cc(C(O)c2nc(/C=C/c3ccccc3)cs2)ccc1F (stereo not drawn) | inconclusive: 20 µM [activator, single point] | 
CCOc1cc(/C=N/O)ccc1OCc1ccc(F)cc1 | inconclusive: 17.8 µM [activator, partial curve, poor fit] | 
Cc1cnc(NC(=O)Cc2ccccc2Cl)s1 |  | inconclusive: -41.7% [activator]
COc1ccccc1NC(=O)Cc1c(F)cccc1Cl | inconclusive: 11.2 µM [activator, partial curve, poor fit] | 
Cc1cccc(C)c1OC(=O)CCN1C(=O)C2C3C=CC(C4CC34)C2C1=O (stereo not drawn) | inconclusive: 15.8 µM [activator, single point] | 
CC(C)N1CCC(N2CCN(Cc3ccc(Oc4ncccn4)cc3)CC2CCO)CC1 (stereo not drawn) | inconclusive: 15.8 µM [activator, partial curve, poor fit] | 
CCCS(=O)(=O)c1nc(S(=O)(=O)c2ccc(C)cc2)c(NC(C)c2ccccc2)s1 (stereo not drawn) | inactive | 
O=C(Cc1ccccc1F)Nc1nc(-c2ccc(F)c(F)c2)cs1 | inconclusive: 3.16 µM [activator, partial curve, poor fit] | 
Cc1ccc2ccccc2c1C(O)c1ncc(-c2ccc(C(F)(F)F)cc2)[nH]1 (stereo not drawn) | inactive | 
COC(=O)c1cn(C(=O)c2ccc(Br)o2)c2ccccc12 | inconclusive: 14.1 µM [activator, partial curve, poor fit] | 
CC(O)(c1ccc(F)c(F)c1)c1nc(-c2ccc(Cl)cc2)cs1 (stereo not drawn) | inactive | 
O=C(CNC(=O)c1ccccc1)OCc1cccc([N+](=O)[O-])c1 | inconclusive: 11.2 µM [activator, partial curve, poor fit] | 
C=CCNc1nc(-c2ccc([N+](=O)[O-])cc2)cs1 | inconclusive: 22.4 µM [activator, single point] | 
CC1(Cc2ccccc2Cl)C(=O)Nc2ccc(OC(F)(F)F)cc21 (stereo not drawn) | inconclusive: 15.8 µM [activator, single point] | 
